This series relates to ATP. Nature of the series: switch fluorescence ratio, 500 uM ATP over buffer (Cy3 cluster intensity, sum of 5 cycles each) (fold (ratio)); higher = stronger signal-on switching upon ATP binding; sequences stand for … in TCGTCGGCAGCGTCAGATGTGTATAAGAGACAGTTTTTTTTTTTTTTTTTTTTTTTTT…TC. Conditions: aptamer strand: ATP DNA aptamer (quencher-CACCTGGGGGAGTATTGCGGAGGAAGG + anchor), 100 nM annealed; ATP concentration: 500 uM; one replicate. The procedure, abridged: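 Cy3-labelled switching-strand clusters on a modified Illumina MiSeq flow-cell were annealed to 100 nM quencher-labelled ATP aptamer and imaged first in selection buffer, then after 15 min with 500 uM ATP at 22 °C. NaOH stripping and re-annealing separated each of five buffer/ATP cycles, and clusters outside 100-1000 RFU were excluded. The fluorescence ratio sums target-cycle Cy3 intensity over buffer-cycle Cy3 intensity per cluster and averages it per switch-domain sequence.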

Values marked as one replicate rest on one cluster of the flow cell; about a third of the high ones do not repeat.
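Further: ATP exposure 15 min at 22 °C before imaging.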

As to TCAGATTGAG, the switch fluorescence ratio was determined as 0.994.

In the case of TTCAATTGCT, the switch fluorescence ratio is 0.918.

For CCCTACGTTT, the switch fluorescence ratio is 1.02. As for CTTATATGCG, the switch fluorescence ratio stood at 0.998. The result for CCAATGCTCT reads 1.63. Take TACCATGCGA: the switch fluorescence ratio was found to be 1.04. With ACTAAACGAC, the switch fluorescence ratio worked out at 1.14.

Take TTCTTGGTTC: the switch fluorescence ratio stood at 1.06. For GCTTAGAACA, the switch fluorescence ratio is 0.961. Regarding GCACGCGCTC, the switch fluorescence ratio came to 1.05. In the case of GAAAATGGGC it was 1.1; in that of GCTTGCCGCT, 0.988; in that of GCCACCACTG, 1.05. As to TTACGCACCG, the switch fluorescence ratio turned out to be 1.52. In the case of GAAGTCCTTT it was 0.994; in that of TTCCGTAGTA, 2.62. As for AAGGGTCCTA, the switch fluorescence ratio is 0.989. In the case of GGTTATGCTC it was 1.04; in that of CACGCTACGC, 1.56; in that of TTCATAGTTA, 1.01. In the case of CCATTATGTC, the switch fluorescence ratio is 0.956. In the case of GGTAAAGTCG it was 1.01; in that of CGGTATAAAT, 1.04; in that of GGGGTGTGCC, 1.02. ATCAGATTCC: the switch fluorescence ratio was found to be 1.08.

With AAACTATGTT, the switch fluorescence ratio came out at 1.05.

As to GCCCGGGGCG, the switch fluorescence ratio was 0.949. The result for TTCACGCCTT reads 1.06; that for GGAATAATAG, 1.03. The result for AGAACAAGTA reads 1.01; that for GAAATGAGT, 1.02. For the sequence GTGGGATGAA, the switch fluorescence ratio was 0.93. In the case of ATACAATCGC it was 1.03; in that of CAATTTTTGA, 0.982.

For GTTGGGGAGA, the switch fluorescence ratio was 0.992. The result for CCAACATGTA reads 1.03; that for CAAAAATCTA, 0.982; that for CGATACCGGC, 0.964.

As for GGCGTCGTCT, the switch fluorescence ratio stood at 1.04. As for AGGCACCGGA, the switch fluorescence ratio amounted to 1.03. With GGGTCAAAG, the switch fluorescence ratio came out at 0.967. Regarding TAGGGGCTTA, the switch fluorescence ratio came out at 1.02.

Consider GTCAGTGATT, for which the switch fluorescence ratio stood at 0.985. Turning to GCGTCCACTG, the switch fluorescence ratio was 0.962. In the case of TCTAGAGCTG it was 0.979. In the case of TAGTGCGCCC it was 1.04; in that of GCGTGGAGTG, 1.04; in that of TTTAGGATGT, 1. In the case of GGTAAAGGTC it was 0.975; in that of CATGAAATGT, 1.06; in that of GCTGCGTCAT, 1.03. In the case of TTTGCTCCTG, the switch fluorescence ratio was determined as 0.929. The result for CCAGGAATTG reads 1.02. In the case of GTATGTACGC, the switch fluorescence ratio came out at 1.06. On to ATCTATGGGA, for which the switch fluorescence ratio turned out to be 0.962. In the case of CGGGCTTACG it was 1.03. In the case of ACCTAGGTAG it was 1.02; in that of TCTCATCACT, 0.991. In the case of CACAAACCGT it was 1.17; in that of TTAGACTTGC, 0.998; in that of ATTACGGTT, 1. For AATTCACTTC, the switch fluorescence ratio came out at 1.03. For the sequence TTTACTACAC, the switch fluorescence ratio is 1.15. With GACCTAGTTT, the switch fluorescence ratio turned out to be 1.

For CTTCGGGAG, the switch fluorescence ratio was 1.07. The result for TTTTTCTGAC reads 1.12. In the case of GAGTAATACG it was 1.3; in that of TATAGGTGAT, 1.05; in that of ATTTAGTGT, 0.998. The result for CTTGCCAGGG reads 1.09. For AATGGGTTAG, the switch fluorescence ratio was found to be 0.964. The result for ACCGAATTGG reads 1.02; that for GGTCATACGG, 1.1; that for AGCTGGAAGG, 1.01.

As for ACTTACGGGT, the switch fluorescence ratio was found to be 1.19.

As to GACTATTACT, the switch fluorescence ratio was determined as 1.05. In the case of AGTATGTCAA it was 0.953; in that of GATGAGCAGC, 1.03.

The values are drawn from the supplement of paper PMC10126150.
